# Assay results taken from PMC4336329 (PLoS ONE, 2015).
# Out of some 310,000 compounds screened, about 14,000 (4.5%) showed an effect of 50% or more. Effects have a minus sign here. The list shows a part of the results.
# Biological target: human ether-à-go-go-related gene (hERG) potassium channel (human, UniProt Q12809)
# Test: primary screen, population patch clamp on CHO cells stably expressing hERG
# 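Note: peak tail current of the secondary pulse compared with the same well before compound.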
# Sequence of human ether-à-go-go-related gene (hERG) potassium channel (Q12809 whole entry, looked up): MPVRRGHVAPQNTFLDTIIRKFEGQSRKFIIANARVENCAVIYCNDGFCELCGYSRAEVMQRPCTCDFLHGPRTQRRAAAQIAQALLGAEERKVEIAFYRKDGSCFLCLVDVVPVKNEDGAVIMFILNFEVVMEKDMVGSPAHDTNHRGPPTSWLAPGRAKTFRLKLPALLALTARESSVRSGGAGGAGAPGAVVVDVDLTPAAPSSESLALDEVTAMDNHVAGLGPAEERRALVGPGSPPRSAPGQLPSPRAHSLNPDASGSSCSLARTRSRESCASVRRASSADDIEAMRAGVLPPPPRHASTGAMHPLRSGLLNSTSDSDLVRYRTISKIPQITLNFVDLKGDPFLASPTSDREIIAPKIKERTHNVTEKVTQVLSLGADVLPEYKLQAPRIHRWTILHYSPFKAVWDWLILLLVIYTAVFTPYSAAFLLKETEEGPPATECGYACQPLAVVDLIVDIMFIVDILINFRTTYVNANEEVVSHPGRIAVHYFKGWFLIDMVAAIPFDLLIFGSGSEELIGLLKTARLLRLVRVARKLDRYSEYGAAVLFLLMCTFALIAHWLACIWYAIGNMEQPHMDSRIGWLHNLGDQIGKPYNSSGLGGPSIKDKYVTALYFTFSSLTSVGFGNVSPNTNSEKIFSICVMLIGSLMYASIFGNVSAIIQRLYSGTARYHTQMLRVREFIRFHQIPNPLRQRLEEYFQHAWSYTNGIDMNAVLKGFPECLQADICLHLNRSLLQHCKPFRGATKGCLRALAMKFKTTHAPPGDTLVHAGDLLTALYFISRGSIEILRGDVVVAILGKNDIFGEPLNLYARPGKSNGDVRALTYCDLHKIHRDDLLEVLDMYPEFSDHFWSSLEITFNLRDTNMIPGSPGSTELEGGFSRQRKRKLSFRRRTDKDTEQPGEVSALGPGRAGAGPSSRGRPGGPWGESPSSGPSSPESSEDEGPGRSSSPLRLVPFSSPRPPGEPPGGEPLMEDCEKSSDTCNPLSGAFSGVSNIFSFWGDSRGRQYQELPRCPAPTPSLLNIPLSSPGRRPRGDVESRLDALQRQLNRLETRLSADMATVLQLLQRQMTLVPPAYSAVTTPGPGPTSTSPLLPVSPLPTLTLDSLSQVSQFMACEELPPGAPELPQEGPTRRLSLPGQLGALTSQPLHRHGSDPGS
row,Compound,"hERG current change (%, negative = inhibition) at 10uM"
1,CC(C)c1nnc(SCC(=O)NCc2ccco2)n1C,1.44%
2,COc1ccc(N2C(=O)CC(N3CCN(C4CCc5ccccc5C4)CC3)C2=O)cc1 (stereo not shown),-61.7%
3,CN(C)C=NC(=O)c1cccn1-c1ncc(C(F)(F)F)cc1Cl,8.71%
4,Cc1cc(C)cc(OCCNC(=O)C(C)N2C(=O)c3ccccc3C2=O)c1 (stereo not shown),-7.64%
5,O=C(NCCS(=O)(=O)NCc1cccnc1)c1ccccc1,6.42%
6,CC(=O)c1c(C)nc(C)nc1NC(=O)Cc1ccccc1,9.86%
7,Cc1ccccc1NC(=S)N(Cc1cccs1)C1CCCC1,5.42%
8,COc1ccc(-c2cn3cc([N+](=O)[O-])ccc3n2)cc1OC,-7.47%
9,O=S1CCCSC1c1cccnc1 (stereo not shown),-10.8%
10,CCOC(=O)C(Oc1ccc(=O)n(-c2ccccc2)n1)C(C)=O (stereo not shown),4.1%
11,Cc1cc(C)c(S(=O)(=O)ON2C(=O)c3ccccc3C2=O)cc1C,0.662%
12,CC(CC(=O)NC1CCSC1=O)c1ccccc1 (stereo not shown),7.58%
13,O=C(Cn1nc(-c2ccccc2)ccc1=O)N1CCCCC1,-61.6%
14,COc1ccc(NC(=O)C2CCCN(C(=O)NC3CCCCC3)C2)cc1OC (stereo not shown),-10.8%
15,CN(C)c1cc[n+](CCC(=O)Nc2cccc([N+](=O)[O-])c2N)cc1.[Cl-],4.9%
16,CC(=O)c1ccc(OC(=O)COc2ccccc2)cc1,10.1%
17,O=C(O)C1C2C=CC3(O2)C1C(=O)N1c2ccccc2C2OCCC2C13 (stereo not shown),6.95%
18,c1ccc2c(c1)CC1(CCCC1)N=C2N1CCOCC1,20.8%
19,O=C(c1ccc(Br)o1)N(Cc1ccccc1)Cc1ccccc1,-5.43%
20,NC(=O)C1(N2CCCCC2)CCN(Cc2ccccc2Cl)CC1,3.95%
21,O=C(c1cc2cc(Cl)ccc2o1)N1CCCC1,2.54%
22,COc1cc2c(cc1OC)CN(c1nc(CN3CCOCC3)nc3sc4c(c13)CCCC4)CC2,-73.6%

row,Compound,"hERG current change (%, negative = inhibition) at 10uM"
1,O=C(c1ccccc1)N1CCN(C2CC(=O)N(CCc3ccccc3)C2=O)CC1 (stereo not shown),-12.5%
2,Cc1ccc(NC(=O)c2ccccc2NS(=O)(=O)c2ccc(Cl)s2)cc1,5.94%
3,CCc1ccc(NC(=O)CCc2nc3cccnc3n2Cc2ccc(OC)cc2)cc1,2.41%
4,Cc1nc(/C(N)=N/OC(=O)Cc2ccccc2)no1,3.53%
5,CC(=O)C1=C(O)C(=O)N(c2cc(C(C)(C)C)on2)C1c1ccc(C(C)C)cc1 (stereo not shown),-1.87%
6,CN(C)C1NC(=O)c2cc(-c3ccccc3)sc2N1 (stereo not shown),-9.64%
7,CC(C)Cc1nnc(NC(=O)CCC(=O)N2CC(C)CC(C)C2)s1 (stereo not shown),-50.8%
8,O=C1CN(S(=O)(=O)c2cc(Cl)ccc2Cl)c2ccccc2N1,2.42%
9,O=C(O)/C=C\c1cc2c(cc1[N+](=O)[O-])OCO2,9.56%
10,Cc1ccc(NC(=O)NNC(=O)c2cc3ccccc3cc2O)c(C)c1,27.4%
11,CCCc1ccc2oc(C(=O)NCCc3cnn(C)c3)c(C)c2c1,-40.4%
12,CCN(CC)S(=O)(=O)c1cccc(NC(=O)c2cccc(S(=O)(=O)N3CCCC3)c2)c1,-80.8%
13,COc1ccc(C(C)=O)cc1COC(=O)c1ccc(S(=O)(=O)N2CCOCC2)cc1,-2.54%
14,C/C(=N\NC(=O)c1c([N+](=O)[O-])c(C)nn1C)c1ccc(NC(=O)C2CCCC2)cc1,13.7%
15,CCOC(=O)N1CCN(S(=O)(=O)c2ccc(C(=O)N(CCN(C)C)c3nc4ccc(CC)cc4s3)cc2)CC1.Cl,-51.9%
16,Cc1ccccc1[C@@H]1C(C#N)=C(N)S[C@H]1C(=O)c1ccccc1,1.89%
17,CC1=CSC2=NC(=O)/C(=C\c3cccn3-c3ccc([N+](=O)[O-])cc3)C(=N)N12,12.9%
18,O=C([C@@H]1CCCN1C(=O)c1cccs1)N1CCN(S(=O)(=O)c2cccc(F)c2)CC1,4.84%
19,COc1ccccc1N(C)S(=O)(=O)c1ccc(C(=O)NCC2CCCCC2)cc1,-3.05%
20,CN(Cc1cnn(C)c1)C(=O)C1CCCCC1C(=O)O (stereo not shown),-4.4%
21,COC(=O)C(C)N1C(=O)S/C(=C\c2ccc(-c3ccc(C(=O)O)cc3C)o2)C1=O (stereo not shown),15.5%
